# Test results as given in the supplement of paper PMC3334620.
# Over roughly 33,000 sequences, “E-score (-0.5 to 0.5)” has its median near -0.035; the highest 2% begin near 0.35. The list shows a part of the results.
# Molecular target: T1, Pdr3 (UniProt P33200)
# T1 sequence: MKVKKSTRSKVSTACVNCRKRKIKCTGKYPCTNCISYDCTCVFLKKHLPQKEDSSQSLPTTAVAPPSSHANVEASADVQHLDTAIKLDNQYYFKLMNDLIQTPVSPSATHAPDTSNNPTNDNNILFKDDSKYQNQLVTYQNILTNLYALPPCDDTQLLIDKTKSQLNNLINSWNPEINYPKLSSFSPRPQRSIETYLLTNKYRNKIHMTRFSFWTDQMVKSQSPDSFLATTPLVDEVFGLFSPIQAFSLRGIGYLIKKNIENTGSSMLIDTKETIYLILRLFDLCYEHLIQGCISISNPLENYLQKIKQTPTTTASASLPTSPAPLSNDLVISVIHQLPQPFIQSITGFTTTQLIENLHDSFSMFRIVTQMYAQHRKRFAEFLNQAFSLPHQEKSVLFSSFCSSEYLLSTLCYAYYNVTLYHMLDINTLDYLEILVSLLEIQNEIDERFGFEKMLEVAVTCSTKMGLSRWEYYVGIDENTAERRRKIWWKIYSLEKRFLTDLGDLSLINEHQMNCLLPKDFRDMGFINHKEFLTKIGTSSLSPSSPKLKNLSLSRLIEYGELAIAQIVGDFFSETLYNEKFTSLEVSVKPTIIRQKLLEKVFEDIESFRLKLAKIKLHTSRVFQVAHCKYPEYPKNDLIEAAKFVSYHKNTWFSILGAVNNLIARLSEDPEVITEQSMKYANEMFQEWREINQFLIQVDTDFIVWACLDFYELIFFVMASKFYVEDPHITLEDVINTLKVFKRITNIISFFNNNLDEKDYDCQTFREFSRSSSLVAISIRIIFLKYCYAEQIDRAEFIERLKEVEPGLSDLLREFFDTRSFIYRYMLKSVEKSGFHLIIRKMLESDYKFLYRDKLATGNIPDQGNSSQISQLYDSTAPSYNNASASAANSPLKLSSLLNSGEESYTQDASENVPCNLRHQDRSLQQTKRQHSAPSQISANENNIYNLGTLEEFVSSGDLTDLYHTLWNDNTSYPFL
# Test: PBM E-score (8-mer binding enrichment) (E-score (-0.5 to 0.5)); higher = stronger / more preferred TF binding; most listed sequences are background and not binding sites
# Settings: protein concentration: 200 nM; construct: GST-full length
# Summary of the method: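 Full-length yeast transcription factors or their DNA-binding domains, GST-tagged and expressed with PURExpress, were applied at about 100-200 nM to universal all-10-mer Agilent arrays. These arrays had been made double-stranded by primer extension on fresh or once-stripped slides. Detection used fluorescent anti-GST, normalisation used masliner, and E-scores for ungapped eight-base words pooled with reverse complements came from the Universal PBM Analysis Suite.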
row,Sequence,PBM E-score
1,ACTCGGGA,0.285
2,CGATCCGC,0.353
3,AGTATTAC,-0.0706
4,AACGTGGC,-0.0344
5,AACCATGA,0.0879
6,CAGGTTAC,-0.0365
7,CGGAGAGA,0.348
8,CAGGATGG,-0.109
9,AGGCGAAA,-0.0968
10,TAGCGATA,-0.106
11,GACGGGAC,0.2
12,GAATCCAA,0.182
13,AAGGAAAC,0.0238
14,ACCCAGTG,-0.165
15,ACACACTA,-0.00329
16,AATGCATT,0.124
17,ATCCAACG,0.0188
18,CTGGGCTA,0.0113
19,CTATTTCA,0.152
20,CGCCAGGA,-0.0126
21,AGCGACGG,0.258
22,ACGAGCAG,-0.0922
23,AAATCATA,0.0935
24,AAGCGAAC,-0.0673

row,Sequence,PBM E-score
1,CGCGCTCA,0.113
2,ATACGACC,-0.14
3,CGGGCGAA,0.165
4,GGGCGAAC,0.206
5,GTCGGTTA,0.0723
6,ACCGTCGT,0.06
7,CATCTTCC,0.219
8,ACATTGGC,-0.153
9,CACCGGAC,0.341
10,ACGGAAGC,0.427
11,CACCCTGC,-0.0337
12,GCATTCCC,0.0305
13,TACCTCAA,-0.0831
14,AAGGGTCA,-0.144
15,ATCTTCTA,-0.0919
16,ACATACCC,-0.00671
17,GCAAAGGA,0.0137
18,ATCAACTA,0.0261
19,ATATTCCC,0.266
20,GAATTGCC,0.19
21,AAAGCAGA,-0.0388
22,GACCAACC,-0.064
23,CAAGAGGA,-0.177
24,CGCCAGCG,-0.0638

row,Sequence,PBM E-score
1,TTGTGAAA,-0.0598
2,ACATGATC,-0.127
3,AAGGTTTA,-0.264
4,GCTCTCCC,0.00691
5,AAAATATT,0.162
6,AGTGGACC,-0.129
7,AATGGGGC,-0.158
8,ATGTCCGA,0.207
9,CGATTTAA,0.0128
10,CATTAAAC,-0.0316
11,CAGGGATG,-0.00152
12,CTGTAACC,0.116
13,CATAAATC,0.0877
14,GATTTGGA,-0.0423
15,GAGTAACA,0.206
16,ATTATGCA,-0.00065
17,AAAGCATG,-0.121
18,CCGGGAAA,0.344
19,GGGAGGGA,0.217
20,GTTGGGTA,-0.179
21,GGAGGCTA,0.0762
22,CCCAAGGC,-0.188
23,ATAATCGC,-0.0195
24,ACATTAAG,-0.0669

row,Sequence,PBM E-score
1,CCCGCCGA,0.305
2,ACCGGTTA,0.22
3,ACCACGGG,0.205
4,AATTTTAC,-0.0635
5,GTGTTATA,-0.0501
6,CCAAAAAG,-0.0954
7,GCTTCGGA,0.334
8,GATTATGA,0.0307
9,CAAGTTCA,0.175
10,CCGTTCGA,0.13
11,CGCGGCTC,0.344
12,CTGCAGAA,0.0135
13,ATACAGAA,0.125
14,CATGGCGG,0.261
15,CCGTGGCG,0.329
16,CCTTAAAG,-0.195
17,AGCTGGTG,0.00678
18,CATTTAGG,-0.239
19,CATAACCC,-0.0023
20,CTTGCAAA,0.0295
21,GAATTGTA,-0.0914
22,AGAAACAA,0.106
